{"source": "PubChem BioAssay AID686992", "about": "(Broad Institute, 2013)", "note": "Out of some 260,000 compounds screened, about 960 (0.37%) were called active. This list was built around the results that the source calls inconclusive (neither active nor inactive); the mix of calls is not that of the screen.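 The calls were made as follows: active = mean E-selectin-positive cell signal at least 10% of the positive control, reached in at least 60% of replicates, without over 20% cell loss; inconclusive = no rule given, readout overlaps actives, possibly toxicity-flagged; inactive = the rest, including those meeting only one limit.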"}
{"target": "E-selectin (Homo sapiens) (UniProt P16581)", "sequence (P16581 whole entry, looked up)": "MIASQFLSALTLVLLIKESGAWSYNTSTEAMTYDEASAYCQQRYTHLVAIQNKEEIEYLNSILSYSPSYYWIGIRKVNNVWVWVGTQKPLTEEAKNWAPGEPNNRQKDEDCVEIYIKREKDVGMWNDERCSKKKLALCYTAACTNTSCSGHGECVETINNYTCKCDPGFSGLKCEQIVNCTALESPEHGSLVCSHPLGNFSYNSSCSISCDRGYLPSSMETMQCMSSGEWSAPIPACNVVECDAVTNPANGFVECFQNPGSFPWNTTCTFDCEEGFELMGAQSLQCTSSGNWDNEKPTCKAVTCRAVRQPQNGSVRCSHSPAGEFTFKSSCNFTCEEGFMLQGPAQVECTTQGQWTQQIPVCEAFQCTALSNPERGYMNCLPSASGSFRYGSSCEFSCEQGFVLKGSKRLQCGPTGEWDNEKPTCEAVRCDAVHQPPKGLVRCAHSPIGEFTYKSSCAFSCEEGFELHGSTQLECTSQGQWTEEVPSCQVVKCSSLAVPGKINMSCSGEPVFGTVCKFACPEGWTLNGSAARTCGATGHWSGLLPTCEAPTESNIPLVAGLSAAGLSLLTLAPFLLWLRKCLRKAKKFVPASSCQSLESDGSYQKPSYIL", "assay": "inducers of endothelial E-selectin expression – imaging, HUVEC, immunofluorescence imaging, single point, primary screen (AID 686992);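 also: signal is the percent of cells scored E-selectin positive by PE staining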", "conditions": "at 7.58 µM, hits give high values, normalized: neutral wells 0, TNF-alpha wells 100", "method_in_brief": "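Read-out basis: % PE-positive cells; Test system: HUVEC primary endothelial cells; Technique: immunofluorescence imaging; Dosing: single-point compound dose.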"}
{"compound": "CC1(C)Cc2cccc(OCC(=O)OCC(=O)c3ccccc3)c2O1", "activation": "inconclusive: 57.6%"}
{"compound": "CCOC(=O)N1CCN=C1SCc1ccc(Cl)c(Cl)c1", "activation": "active: 119%"}
{"compound": "O=C(N1CCCCC1)N1CCC(c2nc3ccccc3[nH]2)CC1", "activation": "inconclusive: 67.4%"}
{"compound": "COc1ccc(S(=O)(=O)Nc2ccc3c(c2)CC(=O)N([C@H](C)CO)C[C@H](C)[C@H](CN(C)C(=O)NC2CCCCC2)O3)cc1", "activation": "active: 76.5%"}
{"compound": "COc1ccc(S(=O)(=O)N(C)C[C@H]2Oc3ccc(NC(=O)CCCN(C)C)cc3C(=O)N([C@@H](C)CO)C[C@@H]2C)cc1", "activation": "active: 52%"}
{"compound": "O=C(c1cccnc1)N1CC[C@@H]2[C@H]1c1cc(C#Cc3cccnc3)ccc1N[C@@H]2CO", "activation": "inactive: -0.799%"}
{"compound": "Cc1cccc(COC[C@H](Cc2ccccc2)N2CCN(C(=O)c3ccc(C(F)(F)F)cc3)CCC2=O)c1", "activation": "inconclusive: 49.4%"}
{"compound": "CSC1=NCCN1C(=O)c1ccc(S(=O)(=O)N2CCCCC2)cc1", "activation": "inconclusive: 39.3%"}
{"compound": "C[C@@H]1CCCCO[C@H](CN(C)CC2CC2)[C@@H](C)CN([C@H](C)CO)C(=O)c2cc(NS(=O)(=O)c3ccccc3)ccc2O1", "activation": "inactive: -0.473%"}
{"compound": "C[C@@H]1CCCCO[C@@H](CN(C)C)[C@H](C)CN([C@H](C)CO)C(=O)c2cc(NS(=O)(=O)c3cn(C)cn3)ccc2O1", "activation": "inactive: -0.0435%"}
{"compound": "CC(=O)Nc1ccccc1-c1nc2ccc(C(=O)N3CCN(c4cccc(C)c4)C(C)C3)cc2[nH]c1=O", "note": "(stereo unspecified)", "activation": "inconclusive: 90.2%"}
{"compound": "O=C(CNC(=S)N(Cc1ccccc1F)C1CCCCC1)NCC1CCCO1", "note": "(stereo unspecified)", "activation": "inconclusive: 60.8%"}
{"compound": "Cc1nc2cc(NC(=O)CS(=O)(=O)c3ccccc3)ccc2s1", "activation": "inactive: -1.38%"}
{"compound": "CN(C(=O)c1ccc(NC(=O)Cc2ccc(NC(=O)C3CCN(C(=O)CCc4ccccc4)CC3)cc2)cc1)C1CCCC1", "activation": "inactive: 6%"}
{"compound": "CC(=O)NC(c1cccs1)c1cc(F)c2cccnc2c1O", "note": "(stereo unspecified)", "activation": "inactive: -0.284%"}
{"compound": "O=C(O)c1cc(S(=O)(=O)O)cc(Nc2c3ccccc3nc3ccccc23)c1O", "activation": "inconclusive: 35.2%"}
{"compound": "CCCC#Cc1ccc2c(c1)O[C@H](CN(C)C(C)=O)[C@H](C)CN([C@@H](C)CO)S2(=O)=O", "activation": "active: 123%"}
{"compound": "Cc1noc(C)c1NC(=O)N[C@H]1CC[C@H](CCNC(=O)C2CCOCC2)O[C@@H]1CO", "activation": "inactive: -1.87%"}
{"compound": "CCOC(=O)C1=C(CN2CCN(CCC#N)CC2)NC(=O)NC1c1ccc2c(c1)OCO2", "note": "(stereo unspecified)", "activation": "inconclusive: 34%"}
{"compound": "C[C@@H]1CCCCO[C@@H](CN(C)S(=O)(=O)c2cccs2)[C@H](C)CN([C@H](C)CO)C(=O)c2cc(NS(=O)(=O)c3ccccc3)ccc2O1", "activation": "inactive: -0.198%"}
{"compound": "COc1ccc(CN(C)C[C@@H]2Oc3ccc(NC(=O)C4CCCCC4)cc3C(=O)N([C@H](C)CO)C[C@H]2C)cc1", "activation": "inactive: -0.433%"}
{"compound": "CNS(=O)(=O)c1cccc(C(=O)OCC(=O)NC2CCCC2)c1", "activation": "inconclusive: 49%"}
{"compound": "C[C@H]1CN([C@@H](C)CO)C(=O)Cc2cc(NC(=O)Cc3cn(C)c4ccccc34)ccc2O[C@H]1CN(C)Cc1ccc(C(F)(F)F)cc1", "activation": "active: 258%"}
{"compound": "CC(=O)N1[C@@H](CO)[C@@H](c2ccccc2)[C@@H]1CN(C)C(=O)c1ccccc1F", "activation": "inactive: 0.024%"}
{"compound": "CC(C)CC#Cc1ccc2c(c1)O[C@H](CN(C)C(=O)c1ccccn1)[C@H](C)CN([C@H](C)CO)S2(=O)=O", "activation": "inconclusive: 26.1%"}
{"compound": "CCCNC(=O)N1C[C@@H](C)[C@H](OC)CN(C)C(=O)c2ccc(NC(=O)C3CCC3)cc2OC[C@H]1C", "activation": "inactive: 0.069%"}
{"compound": "C[C@H]1CN([C@@H](C)CO)S(=O)(=O)c2ccc(C#Cc3ccc(F)cc3)cc2O[C@@H]1CN(C)C(=O)NC1CCCC1", "activation": "inconclusive: 30.9%"}
{"compound": "COc1ccc(NC(=O)N(C)C[C@@H]2Oc3ncc(-c4ccccc4)cc3C(=O)N([C@H](C)CO)C[C@@H]2C)cc1", "activation": "inactive: 0.68%"}
{"compound": "CCN(CC)CCCC(C)Nc1nccc2c(Cl)cccc12", "note": "(stereo unspecified)", "activation": "inactive: 0.072%"}
{"compound": "COc1ccc([C@@H]2OC2(C(N)=O)C(N)=O)cc1", "activation": "inconclusive: 28%"}
{"compound": "O=c1cc(N/N=C/c2ccccc2)[nH]c(=O)[nH]1", "activation": "inactive: 0.252%"}
{"compound": "CNC(=O)C[C@@H]1CC[C@@H]2[C@H](COc3ccc(NC(=O)c4cc(F)cc(F)c4)cc3C(=O)N2C)O1", "activation": "inconclusive: 39.3%"}
{"compound": "CCOc1ccccc1N1CCN(C(=O)CSc2ccc3c(c2)OCCO3)CC1", "activation": "active: 78.7%"}
{"compound": "O=C(NC1CCCC1)N1CC(=O)N2[C@H](C1)[C@@H](c1ccc(/C=C/c3ccccc3)cc1)[C@@H]2CO", "activation": "inactive: 1.42%"}
{"compound": "O=S(=O)(N[C@H]1CC[C@@H](CCn2cc(-c3ccccc3F)nn2)O[C@H]1CO)c1ccc(F)cc1", "activation": "inactive: 0.353%"}
{"compound": "Cc1ccc(S(=O)(=O)N(C)C[C@H]2Oc3ccc(N(C)C)cc3C(=O)N([C@@H](C)CO)C[C@@H]2C)cc1", "activation": "active: 46.6%"}
{"compound": "Cc1noc(C)c1NC(=O)N(C)C[C@@H]1Oc2ccc(NS(=O)(=O)c3cccs3)cc2CC(=O)N([C@@H](C)CO)C[C@@H]1C", "activation": "inconclusive: 30.2%"}
{"compound": "Cn1nc(C(=O)N2CCN(c3ccccc3F)CC2)c2c1-c1ccccc1S(=O)(=O)C2", "activation": "inactive: -0.087%"}
{"compound": "O=C(Nc1cccc(F)c1)N1CC(=O)N2[C@H](CO)[C@@H](c3ccc(C#Cc4cccnc4)cc3)[C@@H]2C1", "activation": "inactive: 0.496%"}
{"compound": "O=C(NCC(c1ccco1)N1CCc2ccccc2C1)c1cccc(F)c1", "note": "(stereo unspecified)", "activation": "inconclusive: 29.3%"}
{"compound": "C/C(=N\\NC(=O)C1CC1)c1ccc(Cl)cc1", "activation": "active: 121%"}
{"compound": "O=C(CSc1ccc(-c2cccnc2)nn1)Nc1ccccc1C(F)(F)F", "activation": "inconclusive: 68.2%"}
{"compound": "COc1ccc(NC(=O)Nc2ccc3c(c2)C(=O)N([C@@H](C)CO)C[C@H](C)[C@@H](CN(C)C)O3)cc1", "activation": "active: 41%"}
{"compound": "CCCCCCCCCCCCCCCC[n+]1ccccc1", "activation": "inconclusive: 76.2%"}
{"compound": "CO[C@H]1CN(C)C(=O)c2ccc(NC(=O)Nc3ccccc3F)cc2OC[C@@H](C)NC[C@H]1C", "activation": "inactive: -0.349%"}
{"compound": "CN(C)c1cccc(C(=O)NCc2ccc3c(c2)OCO3)c1", "activation": "active: 29.1%"}
{"compound": "CC(C)C(=O)N1CCN(CCN2C(=O)c3cccc4cccc(c34)C2=O)CC1", "activation": "inconclusive: 91.5%"}
{"compound": "COc1ccc(C#Cc2cnc3c(c2)C(=O)N([C@H](C)CO)C[C@H](C)[C@H](CN(C)Cc2ccccc2)O3)cc1OC", "activation": "inconclusive: 48%"}
{"compound": "CCOC(=O)C(=O)N(C)c1c(CC)nc2c(OCc3ccc(OC(F)F)cc3)cccn12", "activation": "inconclusive: 68.4%"}
{"compound": "C[C@H](O)C#Cc1cnc2c(c1)C(=O)N([C@H](C)CO)C[C@@H](C)[C@@H](CN(C)C(=O)CN(C)C)O2", "activation": "inconclusive: 58.6%"}
{"compound": "C[C@@H]1CN([C@H](C)CO)C(=O)c2c(c3ccccc3n2C)-c2ccccc2CO[C@@H]1CN(C)S(=O)(=O)c1ccc(Cl)cc1", "activation": "inactive: -0.467%"}
{"compound": "O=C(NCC(c1ccc(F)cc1)N1CCOCC1)c1ccc([N+](=O)[O-])o1", "note": "(stereo unspecified)", "activation": "inactive: -0.173%"}
{"compound": "Cn1c(=O)c(C(=O)NCCCc2ccccc2)c(O)c2ccccc21", "activation": "inconclusive: 50%"}
{"compound": "O=C(/C=C/[C@H]1O[C@@H](n2cnc3c(NC(=O)c4ccccc4)ncnc32)[C@H](O)[C@@H]1O)NCCc1ccc(F)cc1", "activation": "inconclusive: 71.9%"}
{"compound": "COc1ccc(NC(=O)Nc2cccc3c2O[C@@H](CN(C)C(=O)NC2CCCCC2)[C@H](C)CN([C@H](C)CO)C3=O)cc1", "activation": "active: 49.2%"}
{"compound": "COCCN(CCOC)S(=O)(=O)c1ccc(C(=O)Nc2ccc(S(=O)(=O)Nc3nccc(C)n3)cc2)cc1", "activation": "inconclusive: 36.3%"}
{"compound": "Cc1noc(C)c1NC(=O)Nc1ccc2c(c1)CC(=O)N([C@H](C)CO)C[C@@H](C)[C@H](CN(C)C(=O)Nc1ccc(F)cc1)O2", "activation": "active: 38.7%"}
{"compound": "CO[C@@H]1CN(C)C(=O)c2cc(NC(=O)Nc3c(C)noc3C)ccc2OC[C@@H](C)NC[C@H]1C", "activation": "inactive: 1.88%"}
{"compound": "CC1(C)NC(=O)N(c2ccc([N+](=O)[O-])c(C(F)(F)F)c2)C1=O", "activation": "inconclusive: 58.9%"}
{"compound": "CCC1(CC)CNC(=O)NC1=O", "activation": "inconclusive: 57.9%"}
{"compound": "COc1ccc(NC(=O)c2nc(C)c(C3(C)CC(c4cccnc4)=NO3)s2)cc1", "note": "(stereo unspecified)", "activation": "inactive: -0.333%"}
{"compound": "C[C@H]1CN([C@@H](C)CO)C(=O)c2cccc(NC(=O)c3ccc(-c4nccs4)cc3)c2O[C@H]1CN(C)Cc1ccc(Oc2ccccc2)cc1", "activation": "inconclusive: 27.8%"}
{"compound": "COc1ccccc1S(=O)(=O)N1CC[C@@H]2[C@H]1c1cc(Br)ccc1N[C@@H]2CO", "activation": "inconclusive: 33.1%"}
{"compound": "O=C(NS(=O)(=O)Nc1ccc(Cl)cc1)c1c[nH]c2ccccc12", "activation": "inconclusive: 29.8%"}
{"compound": "CCNC(=S)N/N=C/c1ccc(F)cc1", "activation": "inconclusive: 42.5%"}
{"compound": "O=S(=O)(NCc1csc(-c2cccs2)n1)c1ccc(Cl)cc1", "activation": "active: 52%"}
{"compound": "CN(C)c1ccc2c(c1)[C@H]1C[C@H](CC(=O)NCc3ccccc3F)O[C@H](CO)[C@H]1O2", "activation": "inactive: -0.024%"}
{"compound": "Cc1ccc(S(=O)(=O)N2CCN(C(=O)C3CCN(C(=O)c4ccccc4C)CC3)CC2)cc1C", "activation": "inconclusive: 93.4%"}
{"compound": "CC1=C(C(=O)Nc2ccccn2)C(c2cn(C)nc2C)C2=C(CCCC2=O)N1", "note": "(stereo unspecified)", "activation": "inconclusive: 60.9%"}
{"compound": "CC(C)CC#Cc1ccc2c(c1)O[C@H](CN(C)Cc1ccncc1)[C@H](C)CN([C@@H](C)CO)S2(=O)=O", "activation": "active: 108%"}
{"compound": "C[C@@H]1CN([C@H](C)CO)C(=O)c2cccc(NS(C)(=O)=O)c2O[C@@H]1CN(C)Cc1ccncc1", "activation": "active: 262%"}
